Measured values reported in the RNAGym collection of RNA variant scans (doi:10.1093/nar/gkz1192).
The source gives no read counts; variants with many changes may rest on few reads.

B1: CPEB3 Ribozyme (parent)
chain: UAACAGGGGGCCACAGCAGAAGCGUUCACGUCGCAGCCCCUGUCAGAUUCUGGUGAAUCUGCGAAUUCUGCUGUAUAUCUC

Variants of: B1
Test: self-cleavage, relative activity (ratio to wild type); higher = more cleavage; in vitro, sequencing
How it was run: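 After error-prone PCR and barcoding, CPEB3 ribozyme mutant libraries were transcribed with T7 RNA polymerase at 37°C for 5 hours, then given 15 min with DNase I before an EDTA stop, and they cleaved during both steps. Reverse transcription with template switching preceded Illumina sequencing. Relative activity divides a variant's cleaved/total read fraction by the unmutated ribozyme's. At least 5 reads were required per variant, and three batches were averaged.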

| Variant | self-cleavage |
| --- | --- |
| A13G A20G G36U | 0.19 |
| A13G A20G U25C | 0.1 |
| A13G A20G U25C C59G A64U | 0.18 |
| A13G A20G U26A G63A U69C | 0.12 |
| A13G A20G U26C C32A U49A | 0.26 |
| A13G A20G U26C U69A | 0.35 |
| A13G A20G U31C U67C | 0.23 |
| A13G A20G U41C G55U U69A | 0.23 |
| A13G A20G U51A A64U U69A G73U | 0.15 |
| A13G A20G U54C G61C | 0.23 |
| A13G A20U A28G C40A U51A U58A | 0.25 |
| A13G A20U A35U A56U U76C U80C | 0.05 |
| A13G A20U C40A | 0.27 |
| A13G A20U U41C U49C U60A | 0.04 |
| A13G A20U U43C | 0.35 |
| A13G A21G A28G A35G U78C | 0.4 |
| A13G A21G A28G U43C A45G | 0.28 |
| A13G A21G A35U U80C | 0.16 |
| A13G A21G C32U U51A U60C | 0.07 |
| A13G A21G G61A U74C | 0.47 |
| A13G A21G U25C A45G U78G | 0.47 |

| Variant | self-cleavage |
| --- | --- |
| A13G A21G U25C A65G U72A U80C | 0.09 |
| A13G A21G U31A A56U C62G | 0.07 |
| A13G A21G U31A U48A U72C | 0.43 |
| A13G A21G U31A U49C A64C U80C | 0.03 |
| A13G A21G U31C A57G | 0.14 |
| A13G A21G U54C G63A U72C U80G | 0.32 |
| A13G A21G U60C | 0.17 |
| A13G A21G U80C | 0.35 |
| A13G A21U A64C A65G U69C A77G | 0.21 |
| A13G A21U G53U | 0.39 |
| A13G A21U U25C A56G U72C | 0.18 |
| A13G A28C U51C U69C | 0.13 |
| A13G A28C U54C U60A U66C A75G | 0.07 |
| A13G A28G A45G | 0.35 |
| A13G A28G C32U U49C A65G | 0.11 |
| A13G A28G G33A C38G C44U U72A | 0.03 |
| A13G A28G U31C | 0.43 |
| A13G A28G U43C U72C | 0.47 |
| A13G A28G U51A G55C A56G | 0.24 |
| A13G A28G U54G U58C C62U U72C | 0.08 |
| A13G A28G U74C | 0.47 |

| Variant | self-cleavage |
| --- | --- |
| A13G A28U A35G | 0.39 |
| A13G A28U A35G A56U | 0.24 |
| A13G A28U A56U | 0.25 |
| A13G A28U U31C | 0.13 |
| A13G A28U U31C A35U A65G U67C U69A | 0.16 |
| A13G A28U U43C U49C C62U | 0.13 |
| A13G A28U U49A | 0.27 |
| A13G A28U U51C A56C C59A | 0.14 |
| A13G A28U U54C | 0.46 |
| A13G A28U U72C | 0.53 |
| A13G A35C A56G U78G C81U | 0.92 |
| A13G A35G C37U | 1.04 |
| A13G A35G C71G | 0.18 |
| A13G A35G G42A C62U A64G A77G | 0.08 |
| A13G A35G U54C | 0.68 |
| A13G A35G U54C G63U U67C U80C | 0.11 |
| A13G A35G U66C U80C | 0.48 |
| A13G A35G U67C U74A | 0.08 |
| A13G A35G U69C | 0.2 |
| A13G A35U A65G | 0.15 |
| A13G A35U C44A U49C | 0.06 |

| Variant | self-cleavage |
| --- | --- |
| A13G A35U U58C U67G U72G | 0.27 |
| A13G A35U U67C U74C | 0.08 |
| A13G A35U U72A U78C | 0.24 |
| A13G A45C U60C C68A U69C U78C C81A | 0.04 |
| A13G A45G A57G A65G | 0.14 |
| A13G A45G A64U | 0.2 |
| A13G A45G A64U U69G | 0.13 |
| A13G A45G A75C A77G | 0.84 |
| A13G A45G U49C U69C | 0.23 |
| A13G A45G U69C U78A | 0.12 |
| A13G A45G U76A C81U | 0.33 |
| A13G A45U A77U | 0.34 |
| A13G A47C U69A U80A | 0.18 |
| A13G A47G U48C U66A | 0.24 |
| A13G A56C G63A A75G | 0.21 |
| A13G A56G G73A | 0.66 |
| A13G A56U U58A U67A | 0.13 |
| A13G A57G U72C | 0.66 |
| A13G A57G U80A | 1.03 |
| A13G A57G U80C | 0.97 |
